Experiment [1] has as its target cLUC-CRY2 (Arabidopsis thaliana) (UniProt Q96524). As to the kind of experiment: split reporter; BiLC: fusions to the C- or N-terminus of firefly luciferase co-infiltrated into N. benthamiana leaves; LD white light, 3 days; luciferin, CCD camera.
Experiment [2] deals with Arabidopsis SF1 homolog (At5g51300), BiFC fusion (Arabidopsis thaliana) (UniProt Q9LU44). As to the kind of experiment: split reporter; BiFC: fusions to CFP(155-238) and YFP(1-172) co-infiltrated into N. benthamiana leaves; plants left under long days, white light, 3 days.
Experiment [3] addresses nYFP-CRY2 (Arabidopsis thaliana) (UniProt Q96524). Described as above.
Experiment [4] concerns the target nYFP-CRY2^D387A (Arabidopsis thaliana) (UniProt Q96524). Described as above.
Experiment [5] deals with CRY2 fused to the GAL4 DNA binding domain (bait plasmid pBridge-CRY2) (Arabidopsis thaliana) (UniProt Q96524). As to the kind of experiment: two-hybrid; quantitative β-galactosidase assay, yeast strain Y190, bait in pBridge, prey in pGADT7, 28 °C, cells kept in darkness.
The target in experiment [6] is CRY2^W374A fused to the GAL4 DNA binding domain (pBridge) (Arabidopsis thaliana) (UniProt Q96524). Described as above.
For experiment [7], the target named is CRY2 fused to the GAL4 DNA binding domain (bait plasmid pBridge-CRY2) (Arabidopsis thaliana) (UniProt Q96524). As to the kind of experiment: two-hybrid; quantitative β-galactosidase assay, yeast strain Y190, bait in pBridge, prey in pGADT7, 28 °C, cells exposed to blue light (30 μmol m^-2 s^-1) for up to 180 min.
In experiment [8] the target is CRY2^D387A fused to the GAL4 DNA binding domain (pBridge) (Arabidopsis thaliana) (UniProt Q96524). Described as above.
For experiment [9], the target named is CRY2^W374A fused to the GAL4 DNA binding domain (pBridge) (Arabidopsis thaliana) (UniProt Q96524). The experiment is described as above.
Experiment [10] has as its target T1, human CRY2 (hCRY2) in pBridge (human) (UniProt Q49AN0).
T1 sequence: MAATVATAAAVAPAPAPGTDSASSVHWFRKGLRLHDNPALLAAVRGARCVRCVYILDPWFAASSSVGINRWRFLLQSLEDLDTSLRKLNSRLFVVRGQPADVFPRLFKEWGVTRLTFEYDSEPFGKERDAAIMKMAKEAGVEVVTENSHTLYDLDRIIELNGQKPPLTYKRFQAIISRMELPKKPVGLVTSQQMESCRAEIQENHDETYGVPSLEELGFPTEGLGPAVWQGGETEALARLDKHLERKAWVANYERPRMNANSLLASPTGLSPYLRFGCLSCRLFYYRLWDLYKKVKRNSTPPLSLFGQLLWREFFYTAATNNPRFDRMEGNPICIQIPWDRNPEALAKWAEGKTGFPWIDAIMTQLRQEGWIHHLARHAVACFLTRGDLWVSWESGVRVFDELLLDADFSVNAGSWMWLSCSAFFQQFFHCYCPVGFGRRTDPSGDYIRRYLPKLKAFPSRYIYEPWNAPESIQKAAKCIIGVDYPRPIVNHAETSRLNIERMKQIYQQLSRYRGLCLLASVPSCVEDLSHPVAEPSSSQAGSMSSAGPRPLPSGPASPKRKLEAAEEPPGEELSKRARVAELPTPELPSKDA
Description: two-hybrid; hCRY2 in pBridge, human G-patch proteins in pGADT7, yeast strain AH109, histidine auxotrophy on -Leu/-Thr/-His/-Ade plates, 28 °C, 2-3 days; the discussion says both in darkness and blue light conditions.

By UniProt entry, the sequences of proteins in these tests, tags left out. Where a name states a change or a piece, a line headed by the entry shows the natural chain unless it says otherwise.
UniProt Q96524: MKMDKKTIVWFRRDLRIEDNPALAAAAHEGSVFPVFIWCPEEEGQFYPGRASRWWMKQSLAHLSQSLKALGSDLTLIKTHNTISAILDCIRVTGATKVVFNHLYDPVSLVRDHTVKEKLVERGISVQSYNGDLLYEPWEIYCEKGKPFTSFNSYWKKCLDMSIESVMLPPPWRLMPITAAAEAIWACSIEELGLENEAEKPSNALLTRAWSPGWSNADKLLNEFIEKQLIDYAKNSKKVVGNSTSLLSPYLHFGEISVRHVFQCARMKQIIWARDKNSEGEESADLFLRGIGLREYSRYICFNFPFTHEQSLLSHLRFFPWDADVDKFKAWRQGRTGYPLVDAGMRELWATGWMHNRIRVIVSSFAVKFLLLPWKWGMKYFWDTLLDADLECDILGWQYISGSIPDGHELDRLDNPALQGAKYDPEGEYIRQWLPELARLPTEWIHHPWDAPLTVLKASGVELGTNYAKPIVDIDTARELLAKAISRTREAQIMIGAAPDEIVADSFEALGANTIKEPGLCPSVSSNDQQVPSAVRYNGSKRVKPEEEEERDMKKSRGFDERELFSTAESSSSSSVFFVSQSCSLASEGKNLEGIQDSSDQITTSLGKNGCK
UniProt Q9LU44: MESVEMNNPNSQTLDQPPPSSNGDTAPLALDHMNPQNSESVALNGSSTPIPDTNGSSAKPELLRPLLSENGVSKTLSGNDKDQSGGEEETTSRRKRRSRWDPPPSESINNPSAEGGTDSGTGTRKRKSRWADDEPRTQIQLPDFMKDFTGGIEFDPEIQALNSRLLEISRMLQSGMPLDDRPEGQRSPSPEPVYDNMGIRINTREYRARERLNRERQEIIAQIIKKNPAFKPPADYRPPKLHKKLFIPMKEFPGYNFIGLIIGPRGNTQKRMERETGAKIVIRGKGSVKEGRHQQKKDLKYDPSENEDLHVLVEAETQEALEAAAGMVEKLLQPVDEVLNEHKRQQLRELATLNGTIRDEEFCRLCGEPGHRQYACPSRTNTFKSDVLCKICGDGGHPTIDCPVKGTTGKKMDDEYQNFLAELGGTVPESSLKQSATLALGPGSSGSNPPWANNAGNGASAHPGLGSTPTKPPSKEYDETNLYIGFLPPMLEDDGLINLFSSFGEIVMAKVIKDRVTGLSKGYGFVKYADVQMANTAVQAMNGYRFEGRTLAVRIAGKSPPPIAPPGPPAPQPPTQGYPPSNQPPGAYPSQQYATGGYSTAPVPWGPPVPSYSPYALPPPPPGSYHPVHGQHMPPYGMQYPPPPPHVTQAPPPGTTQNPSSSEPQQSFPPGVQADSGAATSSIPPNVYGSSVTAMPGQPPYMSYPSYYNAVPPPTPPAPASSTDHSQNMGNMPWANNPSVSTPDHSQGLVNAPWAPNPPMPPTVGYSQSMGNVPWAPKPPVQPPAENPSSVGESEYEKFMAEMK

No constants are given. Whether binding was seen depends on the method and setting. For some assays here: In cells and extracts the contact can be indirect. Some binding calls cover weakened binding; strength is not graded here. For some assays here: Sequences can lack the tags named with a protein.

B1: CIS2 (At1g63980) fused to a half of firefly luciferase (protein, UniProt Q940M0 1-391)
chain: MAAPEAPVKYVGICKDSAAFKLMKSMGWEEGEGLGKDKQGIKGYVRVTNKQDTSGVGLDKPNPWAFDTTQFDNILKKLKVQAAPTKTSKNDDDSDKEDESEDDAVKSEPAKLKTVAKVTRPQGRYKRREKGKLVNSYSSKDLEGILVKRTEDPSPAVCDIADSMDIEIISEDQDASIKEQKIEEPSSNWWGFKSGFVSGGLLGAKSGKKKLKASERKMFSENDQENLYNMVQDKATAGKQGLGIKDRPKKIAGVRYEGKKTSFDNSDDDDDDDDDDDEEDEEEDEDESEADDDDKDSVIESSLPAKRKHDEIIEPKIKLKNLCKQIVKKDAGKGGFMKLKQLKSLIDEQAPSVLSEFSSRKDAIAYLKLKLERSGKFVVEGKKISLVSSKK
On to B1, for which, in [1], the binding result is listed as “binds”.

B2: CIS1, BiFC fusion used with SF1 (protein, UniProt Q94C11 1-443)
chain: MDKGAPPSIFVNDGSFMERFRQLQQEKDKDKDKVVQVEDSKPVKIISNPKPAANKISIGLKPNDAQKKGGKLAFSLKQKSKLLAPPVKLGTEEDEDDEDVKHEQGFGSVKRQKLEQRDTPVKSAKVSDVAPPPPSDPTVKKVADKLASFVAKHGRPFEHITRQKNPGDTPFKFLFDENCADYKYYVFRLAEEEKLISQTKDSGVLHSGDAGSRTSTAAIPLQKPAYQQTGYQIPASALYDTPVEPGASSRSAQASITRPSDSDSFSGPRGADPLSMMEFYMKKAAQEEKMRRPRQSKDEMPPPASLQGPSETSSTDPGKRGHHMGDYIPLEELDKFLSKCNDAAAQKATKEAAEKAKIQADNVGHKLLSKMGWKEGEGIGSSRKGMADPIMAGDVKTNNLGVGASAPGEVKPEDDIYEQYKKRMMLGYKHRPNPLGNPRKAYY
Turning to B2, the binding result in [2] is recorded as “binds”.

B3: CIS1-nLUC (protein, UniProt Q94C11 1-443)
chain: MDKGAPPSIFVNDGSFMERFRQLQQEKDKDKDKVVQVEDSKPVKIISNPKPAANKISIGLKPNDAQKKGGKLAFSLKQKSKLLAPPVKLGTEEDEDDEDVKHEQGFGSVKRQKLEQRDTPVKSAKVSDVAPPPPSDPTVKKVADKLASFVAKHGRPFEHITRQKNPGDTPFKFLFDENCADYKYYVFRLAEEEKLISQTKDSGVLHSGDAGSRTSTAAIPLQKPAYQQTGYQIPASALYDTPVEPGASSRSAQASITRPSDSDSFSGPRGADPLSMMEFYMKKAAQEEKMRRPRQSKDEMPPPASLQGPSETSSTDPGKRGHHMGDYIPLEELDKFLSKCNDAAAQKATKEAAEKAKIQADNVGHKLLSKMGWKEGEGIGSSRKGMADPIMAGDVKTNNLGVGASAPGEVKPEDDIYEQYKKRMMLGYKHRPNPLGNPRKAYY
Consider B3, for which the binding entry in experiment [1] is given as “binds”.

B4: CIS1-cCFP (protein, UniProt Q94C11 1-443)
chain: MDKGAPPSIFVNDGSFMERFRQLQQEKDKDKDKVVQVEDSKPVKIISNPKPAANKISIGLKPNDAQKKGGKLAFSLKQKSKLLAPPVKLGTEEDEDDEDVKHEQGFGSVKRQKLEQRDTPVKSAKVSDVAPPPPSDPTVKKVADKLASFVAKHGRPFEHITRQKNPGDTPFKFLFDENCADYKYYVFRLAEEEKLISQTKDSGVLHSGDAGSRTSTAAIPLQKPAYQQTGYQIPASALYDTPVEPGASSRSAQASITRPSDSDSFSGPRGADPLSMMEFYMKKAAQEEKMRRPRQSKDEMPPPASLQGPSETSSTDPGKRGHHMGDYIPLEELDKFLSKCNDAAAQKATKEAAEKAKIQADNVGHKLLSKMGWKEGEGIGSSRKGMADPIMAGDVKTNNLGVGASAPGEVKPEDDIYEQYKKRMMLGYKHRPNPLGNPRKAYY
Regarding B4, the values for the binding entry in experiment [3] and in [4] were “binds” and “no binding”, respectively.

B5: CIS1 (CRY2 … SPLICING FACTOR 1) fused to the GAL4 activation domain (pGADT7) (protein, UniProt Q94C11 1-443)
chain: MDKGAPPSIFVNDGSFMERFRQLQQEKDKDKDKVVQVEDSKPVKIISNPKPAANKISIGLKPNDAQKKGGKLAFSLKQKSKLLAPPVKLGTEEDEDDEDVKHEQGFGSVKRQKLEQRDTPVKSAKVSDVAPPPPSDPTVKKVADKLASFVAKHGRPFEHITRQKNPGDTPFKFLFDENCADYKYYVFRLAEEEKLISQTKDSGVLHSGDAGSRTSTAAIPLQKPAYQQTGYQIPASALYDTPVEPGASSRSAQASITRPSDSDSFSGPRGADPLSMMEFYMKKAAQEEKMRRPRQSKDEMPPPASLQGPSETSSTDPGKRGHHMGDYIPLEELDKFLSKCNDAAAQKATKEAAEKAKIQADNVGHKLLSKMGWKEGEGIGSSRKGMADPIMAGDVKTNNLGVGASAPGEVKPEDDIYEQYKKRMMLGYKHRPNPLGNPRKAYY
Turning to B5, the binding result was “no binding (condition: in darkness (no blue light))” in experiment [5]; “binds” in [6]; “binds” in experiment [7]; “no binding” in experiment [8]; “binds” in [9].

B6: human SURP and G Patch Domain Containing 1 (hSUGP1) in pGADT7 (protein, UniProt Q8IWZ8 1-645)
chain: MSLKMDNRDVAGKANRWFGVAPPKSGKMNMNILHQEELIAQKKREIEAKMEQKAKQNQVASPQPPHPGEITNAHNSSCISNKFANDGSFLQQFLKLQKAQTSTDAPTSAPSAPPSTPTPSAGKRSLLISRRTGLGLASLPGPVKSYSHAKQLPVAHRPSVFQSPDEDEEEDYEQWLEIKVSPPEGAETRKVIEKLARFVAEGGPELEKVAMEDYKDNPAFAFLHDKNSREFLYYRKKVAEIRKEAQKSQAASQKVSPPEDEEVKNLAEKLARFIADGGPEVETIALQNNRENQAFSFLYEPNSQGYKYYRQKLEEFRKAKASSTGSFTAPDPGLKRKSPPEALSGSLPPATTCPASSTPAPTIIPAPAAPGKPASAATVKRKRKSRWGPEEDKVELPPAELVQRDVDASPSPLSVQDLKGLGYEKGKPVGLVGVTELSDAQKKQLKEQQEMQQMYDMIMQHKRAMQDMQLLWEKAVQQHQHGYDSDEEVDSELGTWEHQLRRMEMDKTREWAEQLTKMGRGKHFIGDFLPPDELEKFMETFKALKEGREPDYSEYKEFKLTVENIGYQMLMKMGWKEGEGLGSEGQGIKNPVNKGTTTVDGAGFGIDRPAELSKEDDEYEAFRKRMMLAYRFRPNPLNNPRRPYY
B6: in experiment [10], the binding entry is reported as “binds”.

Source of the values: PMC9671898.
